The list shows a part of the results.
test system: T1, C. trachomatis L2/434/Bu expressing GFP (CTL2-GFP); set-up: species or system HeLa; C. trachomatis total inclusion area by high-content imaging, normalised to DMSO; settings: total inclusion area; 28.5 h, 10 µM; inhibitor
T1 construct: L2/434/Bu GFP intracellular growth in HeLa cells
Summary of the method: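 High-content images of fixed, Hoechst-stained infected cultures supply inclusion area and count (growth) plus nuclei number (viability), complementing bulk GFP/resorufin fluorescence. MIC determination is unchanged from the primary assay.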

Structure (SMILES) | % of control remaining
CCC1(CC)OC(NC[C@@H](C)c2ccccc2)=NC1=O [CBK123983] | 76.227
CC(C)(C)c1ccc(-c2cnc3ncccc3c2O)cc1 [CBK089628] | 89.4741
CCN(CC)C(=O)c1ccc(-c2ccc(NC(C)=O)cc2)nc1 [CBK158850] | 110.296
O=C(O)c1ccc2c(c1)C(=O)N(c1ccc(-c3nc(-c4ccccc4)c4ccccc4n3)cc1)C2=O [CBK263311] | 55.3876
Cn1c(N2CC[C@H](O)C2)nc2cc(C(=O)NCc3ccsc3)ccc21 [CBK307471] | 64.207
CCOc1ccc(C(N)CC(=O)O)c2ccccc12 (stereo not drawn) [CBK287120] | 96.8263
COCCNc1nccnc1-c1cccnc1 [CBK037376] | 125.071
O=C1CC(c2ccc(Br)cc2)Nc2ccc3ccccc3c21 (stereo not drawn) [CBK094798] | 105.165
CC(C(=O)NC(c1ccncc1)c1cccs1)n1ccnc1 (stereo not drawn) [CBK281438] | 109.104
Cc1ccc(CN(Cc2ncc[nH]2)C2CC(C)(C)NC(C)(C)C2)o1 [CBK283191] | 58.968
CNC(=O)C1(Cc2ccccc2-c2ccccc2)CCN(C(=O)Cc2ccccc2)CC1 [CBK285695] | 102.446
CC(C)=NNC(=N)Nc1ccccc1 [CBK021452] | 78.1521
CCCn1c(CN2CCOCC2)nc2ccccc21 [CBK287784] | 72.8403
COCn1nccc1S(=O)(=O)NCCc1cn2ccccc2n1 [CBK304060] | 65.8563
COc1ccc(-c2cc(N3CCN(CCN4CCCC4)CC3)ncn2)cc1OC [CBK091173] | 88.9473
CC(C)Nc1nc2ccccc2nc1OCCCN(C)C [CBK113416] | 83.4373
c1coc(-c2nc3n(n2)CCS3)c1 [CBK007565] | 67.6589
COc1cc(/C=C2\C(=O)N(c3ccc(NC(C)=O)cc3)N=C2c2ccccc2)ccc1O [CBK265664] | 111.733
Cc1cc(C)n(C(=O)c2cn3cc(Cl)ccc3n2)n1 [CBK288185] | 92.8134
O=C(N[C@@H](Cn1ccc(=O)[nH]c1=O)C(=O)O)C1CCCCC1 [CBK289651] | 106.445
Cc1cc(C)n(CC(=O)NC2CCCOc3c(F)cccc32)n1 (stereo not drawn) [CBK305553] | 64.2315

Structure (SMILES) | % of control remaining
CCNc1cc(-c2ccc(CC(C)C)cc2)ncn1 [CBK090884] | 96.1043
COc1ccc(Nc2nc(N)nc(CSCCO)n2)cc1 [CBK266714] | 105.804
Cc1cn2c(nc1=O)OC[C@H]1O[C@@H]2C[C@H]1O [CBK201280] | 128.312
Cc1ccc2cc(CN(Cc3ccco3)C(=O)C3CCCO3)c(O)nc2c1 (stereo not drawn) [CBK269300] | 66.3113
O=C(CNC(=O)c1ccco1)Nc1cccc(-c2nc3ccccc3s2)c1 [CBK295142] | 134.661
Cc1ccc2cc(C(=O)N3CCCCC3CN3CCOCC3)[nH]c2c1 (stereo not drawn) [CBK304374] | 86.3136
CC1CC1C(=O)N1C2CCC1CC(O)(Cn1ccc3ccncc31)C2 (stereo not drawn) [CBK284653] | 103.797
CC(C)Nc1nc(-c2cccnc2)cn2ccnc12 [CBK093608] | 100.194
C/C=C/c1ccc(OCCNC2CCCC2)c(OC)c1 [CBK266399G] | 133.102
O=C(Nc1snnc1-c1ccc(Cl)cc1)c1cccc(C(F)(F)F)c1 [CBK153246] | 20.5201
COc1ccc(Cl)cc1C(=O)Nc1cc(C)c2c(=O)oc3ccccc3c2n1 [CBK291196] | 89.1478
CCN(CC)CCN(C(=O)NCCCSC)C(C)c1ccc(OC)c(OC)c1 (stereo not drawn) [CBK158803] | 108.8
COCCCOc1nc2cc(Cl)c(Cl)cc2nc1N1CCCC1 [CBK115773] | 91.209
Cn1c(=O)n(Cc2ccccn2)c(=O)c2cnc(-c3ccncc3)nc21 [CBK288592] | 90.1421
Nc1nc(=O)c2cnc3ccc(F)cc3c2s1 [CBK291195] | 88.7682
O=C(Cc1c[nH]cn1)Nc1ccc2cc[nH]c2c1 [CBK160059] | 99.6043
S=C1NCCN1c1nnc(-c2cccs2)[nH]1 [CBK007096] | 90.4982
CCOc1ccccc1C(=O)N1CCC(Cc2ccc(-c3ccccc3)cc2)(C(N)=O)CC1 [CBK285775] | 112.781
CN(C)CCO/N=C(\c1ccccc1)c1ccncc1 [CBK261095G] | 91.3411
Cc1nn(C)cc1-c1cncn1CC(C)N1CCCCC1 (stereo not drawn) [CBK281781] | 96.5726
CCCc1nc(NC(CC)c2nc(C)c(C)s2)c2cnn(C)c2n1 (stereo not drawn) [CBK307261] | 92.5784

Structure (SMILES) | % of control remaining
CN(c1ncc(-c2ccccc2)cc1C(=O)NCc1ccco1)S(C)(=O)=O [CBK076506] | 121.635
Cc1onc(-c2ccccc2)c1CNC(=O)c1ccc(OC(F)(F)F)cc1 [CBK144080] | 102.553
Cc1ccc(CC2CCCN2CC(=O)NCc2ccccn2)cc1 (stereo not drawn) [CBK304070] | 60.0717
O=C(O)c1ccc(CNCc2ccc(-c3ccc(Cl)cc3)o2)cc1 [CBK269619C] | 107.275
COc1cc(NC(=O)c2ccc3c(c2)C(=O)N(Cc2ccco2)C3=O)c(C(=O)O)cc1OC [CBK267436] | 112.883
CC1=NN(c2ccccc2)C(=O)/C1=C(/C)NNC(=O)c1ccccn1 [CBK261837] | 79.5995
CC(=O)N(C)c1nc(-c2ccccc2C)ccc1C(=O)NC1CCCCC1 [CBK106333] | 96.7872
Cn1c(=O)n(C)c2cc(CNC(=O)COCC3CCCCO3)ccc21 (stereo not drawn) [CBK307061] | 28.7966
O=C(Cc1ccc([N+](=O)[O-])cc1)Nc1cc(C(=O)O)cc(C(=O)O)c1 [CBK263345] | 108.8
Cc1ccc2c(c1)C(=O)NCC1(CCN(C(=O)C3CC3)CC1)O2 [CBK284835] | 92.4678
Cc1cc(C)[n+](-c2ccccc2O)c(C)c1 [CBK005458G] | 81.4978
COc1ccc(C)cc1S(=O)(=O)Nc1cc(Cl)ccc1C(=O)NCc1ccccc1 [CBK113954] | 89.9629
Cc1ccccc1-c1cc(C(=O)N(C)C)c2cnn(C(C)C)c2n1 [CBK306245] | 78.0983
O=C(NCc1ccco1)c1cc(Br)cnc1N1CCOCC1 [CBK076268] | 95.2776
Cc1ccc(-c2n[nH]c(=O)o2)cc1Br [CBK288443] | 99.8202
OCCCc1[nH]nc(-c2ccc(Cl)cc2)c1Br [CBK006993] | 48.5351
COc1ccc(C(CNC(=O)C2C(C(=O)O)C2(C)C)N(C)C)cc1 (stereo not drawn) [CBK286700] | 92.3044
Cc1noc(C)c1S(=O)(=O)Nc1c(C(=O)Nc2ccc(F)cc2)[nH]c2ccccc12 [CBK050099] | 92.7772
COCCN1C(=O)c2ccc(C(=O)c3ccc4c(c3)C(=O)N(CCOC)C4=O)cc2C1=O [CBK268641] | 141.915
CC(Nc1cccc2ccccc12)C(=O)N/N=C/c1c(O)ccc2ccccc12 (stereo not drawn) [CBK262678] | 41.2203
COC(=O)CN1CCCC[C@H]2CN(C(=O)C3CCC3)C[C@H]21 [CBK285496] | 83.7656

Structure (SMILES) | % of control remaining
Cc1nn(CCC(=O)NCCN2CCC(C)CC2)c(C)c1Cl [CBK281571] | 66.2354
Cc1csc(C(Cc2ccsc2)NC(=O)CCn2cccn2)n1 (stereo not drawn) [CBK285149] | 86.0876
COc1ccc(C)cc1S(=O)(=O)N1CCN(C(c2ccccc2)c2ccccc2)CC1 [CBK263977] | 80.3074
CC(=O)N(C)c1ccc(NC(=O)c2ccccc2C(=O)O)cc1 [CBK270693] | 111.291
Cc1cc2ccccc2n1CC(=O)N1CCn2cnnc2C1 [CBK282209] | 103.544
O=C(O)/C=C/C(=O)Nc1ccccc1C(=O)O [CBK261461] | 93.7651
O=[N+]([O-])c1ccc(N(CCO)CCO)c2nonc12 [CBK261447] | 91.7322
CC(NC(=O)N1CCN(CCc2ccccc2)CC1)c1ccccc1 (stereo not drawn) [CBK158935] | 83.2558
CCCC/C=C/c1cncc(N[C@H](CO)C(C)C)n1 [CBK065314] | 111.201
C[C@@H]1CN(C(=O)c2ccc3[nH]nnc3c2)C[C@H](C)O1 [CBK200369] | 69.9981
COc1ccc(C(=O)N2CCN(Cc3cccnc3)CC2)cc1OC [CBK263321] | 92.8629
COc1ccc(N2CCN(c3nccnc3-c3ccc(C(C)=O)s3)CC2)cc1OC [CBK036968] | 79.8322
Cc1ccc2oc(CN3CCC(O)(c4cccnc4)CC3)c(C)c2c1 [CBK282816] | 78.1067
NCCCNC(=O)c1ccc(/C=N/O)nc1 [CBK264524] | 131.272
c1cc(OCc2cccs2)cc(N2CCNCC2)c1 [CBK022557F] | 53.9457
CC(C)C1C2CCCCC2=NN1C(=O)/C=C/C(=O)O (stereo not drawn) [CBK286862] | 115.344
O=C(NCCc1ccccc1)c1ccccc1NS(=O)(=O)N1CCCC1 [CBK268407] | 103.928
O=C(COc1ccc2oc3c(c2c1)CCCC3)Nc1ccncc1 [CBK266227] | 103.137
COCC(=O)N1CCc2sccc2C1c1ccc(NC(=O)c2cccc(F)c2)cc1 (stereo not drawn) [CBK286468] | 99.9899
CC(=O)NCCCCCC(=O)Nc1ccc(Cl)cn1 [CBK091341] | 99.4662
NS(=O)(=O)c1ccc(NC(=S)NNC(=O)c2cc(Br)ccc2Cl)cc1 [CBK266970] | 87.5982

— publication PMC12040169 (PLOS Biology, 2025)
